We go through 29 molecules from the antibiotic and cytotoxicity screens of Wong et al. (2023).

This is one part of the list.

The subject of the test is HSkMC (human skeletal muscle cells). The test is described as follows: cytotoxicity call (relative viability < 0.9). Conditions: 10 µM.
In the case of `C[C@@H]1CN([C@H](C)CO)C(=O)Cc2cc(NS(C)(=O)=O)ccc2O[C@@H]1CN(C)Cc1ccc(C(=O)O)cc1`, the cytotoxicity call was “inactive”.
For the molecule `C[C@@H]1CN([C@@H](C)CO)C(=O)c2c(c3ccccc3n2C)-c2ccccc2CO[C@@H]1CN(C)Cc1ccc(Cl)c(Cl)c1`, the cytotoxicity call is “inactive”.
Take `Cc1noc(C)c1NC(=O)Nc1ccc2c(c1)C(=O)N([C@H](C)CO)C[C@H](C)[C@H](CN(C)Cc1ccc(C(F)(F)F)cc1)OCCCC[C@@H](C)O2`: the cytotoxicity call was “inactive”.
Then `C[C@@H]1CN([C@@H](C)CO)C(=O)Cc2cc(NC(=O)Cc3cn(C)c4ccccc34)ccc2O[C@@H]1CN(C)C(=O)Nc1cccc2ccccc12`, with “inactive”; and `O=C(C[C@@H]1CC[C@H](NS(=O)(=O)c2ccc(F)cc2)[C@@H](CO)O1)NCc1ccc(Cl)c(Cl)c1`, with “inactive”; and `C[C@@H]1CCCCO[C@@H](CN(C)Cc2ccc(Cl)c(Cl)c2)[C@@H](C)CN([C@H](C)CO)C(=O)c2cc(NC(=O)Nc3ccc(F)cc3)ccc2O1`, with “inactive”.
The value for `COc1ccccc1C#Cc1cnc2c(c1)C(=O)N([C@H](C)CO)C[C@H](C)[C@@H](CN(C)C(=O)CC1CC1)O2` was “inactive”; that for `Cc1ccc(S(=O)(=O)Nc2cccc3c2O[C@@H](CN(C)S(=O)(=O)c2ccccc2)[C@@H](C)CN([C@H](C)CO)C3=O)cc1` was “inactive”; that for `C[C@@H]1CN([C@H](C)CO)C(=O)c2cc(-c3cccnc3)cnc2O[C@H]1CN(C)Cc1ccc(Oc2ccccc2)cc1` was “inactive”.
Take `COc1ccc(CN(C)C[C@@H]2OCCCC[C@@H](C)Oc3ccc(NC(=O)c4ccccc4)cc3C(=O)N([C@H](C)CO)C[C@@H]2C)cc1`: the cytotoxicity call is “inactive”.
Then `C[C@H]1CN([C@@H](C)CO)C(=O)c2cc(NS(C)(=O)=O)ccc2O[C@H]1CN(C)Cc1ccc(C(=O)O)cc1`, with “inactive”; and `Cc1noc(C)c1NC(=O)N(C)C[C@@H]1OCCCC[C@@H](C)Oc2ccc(NC(=O)Nc3ccccc3)cc2C(=O)N([C@@H](C)CO)C[C@@H]1C`, with “inactive”.
On to `COc1ccc(NC(=O)Nc2cccc3c2O[C@H](CN(C)Cc2ccc(C(F)(F)F)cc2)[C@@H](C)CN([C@H](C)CO)C3=O)cc1`, for which the cytotoxicity call was “inactive”.
As to `COc1ccc(/C=C/CN(C/C=C/c2ccc(OC)cc2)CCCCNS(=O)(=O)c2cccc3cnccc23)cc1`, the cytotoxicity call was “inactive”.
`C[C@@H]1CN([C@@H](C)CO)C(=O)c2cc(NC(=O)Nc3ccccc3)ccc2O[C@H]1CN(C)C(=O)Nc1cccc2ccccc12`: the cytotoxicity call is “inactive”.
For `C[C@H](CO)N1C[C@H](C)[C@H](CN(C)C(=O)Nc2ccc3c(c2)OCO3)Oc2ncc(C#CC(C)(C)O)cc2C1=O`, the cytotoxicity call is “inactive”.
Turning to `C[C@@H]1CN([C@H](C)CO)C(=O)Cc2cc(NS(=O)(=O)c3ccccc3)ccc2O[C@@H]1CN(C)S(=O)(=O)c1cccs1`, the cytotoxicity call was “inactive”.
On to `C[C@H]1CCCCO[C@@H](CN(C)C(=O)C2CCCCC2)[C@@H](C)CN([C@@H](C)CO)C(=O)c2cc(NC(=O)C3CCCCC3)ccc2O1`, for which the cytotoxicity call was “inactive”.
For `COc1ccc(S(=O)(=O)Nc2ccc3c(c2)CC(=O)N([C@@H](C)CO)C[C@@H](C)[C@H](CN(C)Cc2ccncc2)O3)cc1`, the cytotoxicity call was “inactive”.
For the molecule `CNC(=O)C[C@@H]1CC[C@@H]2[C@H](COC[C@@H](O)CN2C(=O)Nc2ccc3c(c2)OCO3)O1`, the cytotoxicity call was “inactive”.
On to `C[C@@H]1CN([C@@H](C)CO)C(=O)c2cc(NS(=O)(=O)c3cccs3)ccc2O[C@@H](C)CCCCO[C@H]1CN(C)CC1CCCCC1`, for which the cytotoxicity call is “inactive”.
Turning to `COc1ccccc1S(=O)(=O)N[C@@H]1C=C[C@H](CC(=O)N2CCOCC2)O[C@H]1CO`, the cytotoxicity call was “inactive”.
The value for `C[C@H](CO)N1C[C@H](C)[C@H](CN(C)C(=O)Nc2ccc3c(c2)OCO3)OCCCC[C@H](C)Oc2ccc(NC(=O)c3ccccc3)cc2C1=O` was “inactive”; that for `CN(C)CCOc1ccc(C#N)cn1` was “inactive”.
`Cn1cnc(S(=O)(=O)N[C@@H]2C=C[C@H](CC(=O)Nc3ccccc3)O[C@@H]2CO)c1`: the cytotoxicity call was “inactive”.
In the case of `COc1ccc(CN(C)C[C@@H]2OCCCC[C@@H](C)Oc3ccc(NC(=O)Nc4ccc(OC)cc4)cc3C(=O)N([C@H](C)CO)C[C@H]2C)cc1`, the cytotoxicity call is “inactive”.
The value for `Nc1cnc(Cl)cn1` was “inactive”; that for `CO[C@@H]1CN(C)C(=O)c2ccc(NC(=O)C3CC3)cc2OC[C@@H](C)N(C(=O)CN2CCOCC2)C[C@H]1C` was “inactive”; that for `COc1ccc(CN(C)C[C@H]2OCCCC[C@@H](C)Oc3ccc(NC(=O)Nc4ccc(OC)cc4)cc3C(=O)N([C@H](C)CO)C[C@@H]2C)cc1` was “inactive”.
